Laboratory results from US20210206856A1 (PANDION OPERATIONS, published 2021).

Tests used:
[1] = target: T1, human MAdCAM expressed on cells (human, UniProt Q13477 19-382); experiment: cell binding
T1 construct: whole, on cells; also called MADCAM1
T1 sequence (looked up): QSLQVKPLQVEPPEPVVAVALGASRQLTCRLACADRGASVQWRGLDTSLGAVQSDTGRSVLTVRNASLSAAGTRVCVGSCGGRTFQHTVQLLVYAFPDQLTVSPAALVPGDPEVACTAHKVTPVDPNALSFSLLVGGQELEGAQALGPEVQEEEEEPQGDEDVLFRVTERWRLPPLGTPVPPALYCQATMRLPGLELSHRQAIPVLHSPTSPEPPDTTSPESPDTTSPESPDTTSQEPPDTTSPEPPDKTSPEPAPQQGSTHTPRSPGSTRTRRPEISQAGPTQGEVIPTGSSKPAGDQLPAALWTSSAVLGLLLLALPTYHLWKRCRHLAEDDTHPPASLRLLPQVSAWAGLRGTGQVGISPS

[2] = target: T2, mouse MAdCAM expressed on cells (mouse, UniProt Q61826 22-405); experiment: cell binding
T2 construct: whole, on cells
T2 sequence (looked up): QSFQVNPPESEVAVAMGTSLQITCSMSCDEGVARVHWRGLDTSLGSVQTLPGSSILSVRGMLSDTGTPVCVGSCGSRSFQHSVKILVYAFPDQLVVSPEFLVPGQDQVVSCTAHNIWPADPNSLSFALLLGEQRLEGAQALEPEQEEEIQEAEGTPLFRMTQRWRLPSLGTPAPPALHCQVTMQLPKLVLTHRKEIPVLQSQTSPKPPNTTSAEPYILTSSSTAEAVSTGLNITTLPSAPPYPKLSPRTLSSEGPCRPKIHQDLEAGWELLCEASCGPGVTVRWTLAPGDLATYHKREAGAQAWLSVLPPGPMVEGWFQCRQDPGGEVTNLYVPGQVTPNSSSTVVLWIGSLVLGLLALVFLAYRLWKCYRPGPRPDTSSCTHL

B1: MAdCAM Antibody Table 1 Clone 62 (scFv)
scFv: QVQLVQSGAEVKKPGSSVKVSCKASGGTFSSYAISWVRQAPGQGLEWMGWMEPHTGNTRYAQKFQGRVTITADESTSTAYMELSSLRSEDTAVYYCAKGGFSWFDPWGQGTLVTVSSGGGGSGGGGSGGGGSGGGG[letters of about 100 residues not shown]FGQGTRLEIK
Q: Does B1 bind [1]?
A: Result: binds

Q: Does B1 bind [2]?
A: Result: binds
